# Experimental data published in the supplement of paper PMC8728848.
# The list shows a part of the results.
# B1: Mg3lysM (Mycosphaerella graminicola) (protein)
# chain: APQNPPTSCSAAPQPTGTGSPGTVCGSTTFTNYTVKAGDTLGAIAKQYNSGVCDIAKVNGIDNPDYIKPDQVLSIPANCVTPDNTSCVKPVPVITNTCVLGVGSTYTVKSGDSFSAIATSFNITLASLEARNPQIPNYDLIFPGQVINTPLCPNSVCDSIGTYVIESGDIFYNLAQSNNVTVGQLESLNVNVNVTDIHPGDIIILPHNCHNITASA
# Tests used:
# Assay in all cases: glycan array binding signal (z-score within array); higher = stronger binding
# Settings in all cases: glycan notation: IUPAC condensed, linker removed
# Neu5Ac(a2-8)Neu5Ac = molecular target: Neu5Ac(a2-8)Neu5Ac
# How it was run: (§1)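 The binding signal is a Z-score computed within each array and averaged over linkers. Arrays of the same protein sequence at different concentrations or buffers were also averaged together. Data originate from 3228 arrays in the Consortium for Functional Glycomics database, kept only where the protein sequence was available.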
# [1] = molecular target: Neu5Ac(a2-8)Neu5Ac(a2-3)Gal(b1-3)GalNAc(b1-4)[Neu5Ac(a2-3)]Gal(b1-4)Glc
# How it was run: as §1
# [2] = molecular target: Neu5Ac(a2-8)Neu5Ac(a2-3)Gal(b1-3)GalNAc(b1-4)[Neu5Ac(a2-8)Neu5Ac(a2-3)]Gal(b1-4)Glc
# How it was run: as §1
# [3] = molecular target: Neu5Ac(a2-8)Neu5Ac(a2-3)Gal(b1-4)Glc
# How it was run: as §1
# [4] = molecular target: Neu5Ac(a2-8)Neu5Ac(a2-3)Gal(b1-4)GlcNAc
# How it was run: as §1
# [5] = molecular target: Neu5Ac(a2-8)Neu5Ac(a2-3)[Gal(b1-3)GalNAc(b1-4)]Gal(b1-4)Glc
# How it was run: as §1
# [6] = molecular target: Neu5Ac(a2-8)Neu5Ac(a2-3)[GalNAc(b1-4)]Gal(b1-4)Glc
# How it was run: as §1
# [7] = molecular target: Neu5Ac(a2-8)Neu5Ac(a2-8)Neu5Ac
# How it was run: as §1
# [8] = molecular target: Neu5Ac(a2-8)Neu5Ac(a2-8)Neu5Ac(a2-3)Gal(b1-4)Glc
# How it was run: as §1
# [9] = molecular target: Neu5Ac(a2-8)Neu5Ac(a2-8)Neu5Ac(a2-3)[Gal(b1-3)GalNAc(b1-4)]Gal(b1-4)Glc
# How it was run: as §1
# [10] = molecular target: Neu5Ac(a2-8)Neu5Ac(a2-8)Neu5Ac(a2-3)[GalNAc(b1-4)]Gal(b1-4)Glc
# How it was run: as §1
# [11] = molecular target: Neu5Ac(a2-8)Neu5Ac(a2-8)Neu5Ac(a2-8)Neu5Ac(a2-3)[GalNAc(b1-4)]Gal(b1-4)Glc
# How it was run: as §1
# [12] = molecular target: Neu5Ac(a2-8)Neu5Gc(a2-3)Gal(b1-4)GlcNAc
# How it was run: as §1
# [13] = molecular target: Neu5Ac(b2-6)Gal(b1-4)GlcNAc
# How it was run: as §1
# Neu5Ac(b2-6)GalNAc = molecular target: Neu5Ac(b2-6)GalNAc
# How it was run: as §1
# [14] = molecular target: Neu5Ac9Ac(a2-3)Gal(b1-3)GlcNAc
# How it was run: as §1
# [15] = molecular target: Neu5Ac9Ac(a2-3)Gal(b1-4)GlcNAc
# How it was run: as §1
# [16] = molecular target: Neu5Ac9Ac(a2-6)Gal(b1-4)GlcNAc
# How it was run: as §1
# [17] = molecular target: Neu5Gc(a2-3)Gal(b1-3)GlcNAc
# How it was run: as §1
# [18] = molecular target: Neu5Gc(a2-3)Gal(b1-3)[Fuc(a1-4)]GlcNAc
# How it was run: as §1
# Neu5Gc(a2-3)Gal(b1-4)Glc = molecular target: Neu5Gc(a2-3)Gal(b1-4)Glc
# How it was run: as §1
# [19] = molecular target: Neu5Gc(a2-3)Gal(b1-4)GlcNAc
# How it was run: as §1
# [20] = molecular target: Neu5Gc(a2-3)Gal(b1-4)GlcNAc(b1-3)Gal(b1-4)GlcNAc(b1-2)Man(a1-3)[Neu5Gc(a2-3)Gal(b1-4)GlcNAc(b1-3)Gal(b1-4)GlcNAc(b1-2)Man(a1-6)]Man(b1-4)GlcNAc(b1-4)GlcNAc
# How it was run: as §1
# [21] = molecular target: Neu5Gc(a2-3)Gal(b1-4)[Fuc(a1-3)]GlcNAc
# How it was run: as §1
# [22] = molecular target: Neu5Gc(a2-6)Gal(b1-4)GlcNAc
# How it was run: as §1
# Neu5Gc(a2-6)GalNAc = molecular target: Neu5Gc(a2-6)GalNAc
# How it was run: as §1
# [23] = molecular target: Neu5Gc(a2-8)Neu5Ac(a2-3)Gal(b1-4)GlcNAc
# How it was run: as §1
# [24] = molecular target: Neu5Gc(a2-8)Neu5Gc(a2-3)Gal(b1-4)GlcNAc
# How it was run: as §1
# [25] = molecular target: Neu5Gc(a2-8)Neu5Gc(a2-3)Gal(b1-4)GlcNAc(b1-3)Gal(b1-4)GlcNAc
# How it was run: as §1
# [26] = molecular target: Neu5Gc(a2-8)Neu5Gc(a2-6)Gal(b1-4)GlcNAc
# How it was run: as §1
# [27] = molecular target: Neu5Gc(b2-6)Gal(b1-4)GlcNAc
# How it was run: as §1
binder,measurement,setting,value
B1,glycan array binding signal (z-score),Neu5Ac(a2-8)Neu5Ac,-0.023
same,glycan array binding signal (z-score),[1],0.117
same,glycan array binding signal (z-score),[2],-0.035
same,glycan array binding signal (z-score),[3],-0.08
same,glycan array binding signal (z-score),[4],-0.194
same,glycan array binding signal (z-score),[5],-0.119
same,glycan array binding signal (z-score),[6],-0.083
same,glycan array binding signal (z-score),[7],-0.038
same,glycan array binding signal (z-score),[8],-0.024
same,glycan array binding signal (z-score),[9],0.074
same,glycan array binding signal (z-score),[10],-0.012
same,glycan array binding signal (z-score),[11],-0.189
same,glycan array binding signal (z-score),[12],0.137
same,glycan array binding signal (z-score),[13],-0.255
same,glycan array binding signal (z-score),Neu5Ac(b2-6)GalNAc,-0.136
same,glycan array binding signal (z-score),[14],-0.117
same,glycan array binding signal (z-score),[15],-0.011
same,glycan array binding signal (z-score),[16],-0.085
same,glycan array binding signal (z-score),[17],-0.088
same,glycan array binding signal (z-score),[18],-0.09
same,glycan array binding signal (z-score),Neu5Gc(a2-3)Gal(b1-4)Glc,-0.078
same,glycan array binding signal (z-score),[19],-0.074
same,glycan array binding signal (z-score),[20],-0.076
same,glycan array binding signal (z-score),[21],-0.088
same,glycan array binding signal (z-score),[22],-0.051
same,glycan array binding signal (z-score),Neu5Gc(a2-6)GalNAc,-0.101
same,glycan array binding signal (z-score),[23],0.002
same,glycan array binding signal (z-score),[24],-0.115
same,glycan array binding signal (z-score),[25],0.054
same,glycan array binding signal (z-score),[26],-0.105
same,glycan array binding signal (z-score),[27],-0.006
